Measured values from a compilation of properties of binary mixtures (doi:10.1007/s10953-005-7692-y).
Some of these densities may be calculated back from excess volumes.

Assay: xn = mol fraction of the nth substance listed
Settings: 298.15 K, 101 kPa

CCCCCCCCn1cc[n+](C)c1.F[B-](F)(F)F + CCCCCO
Settings | mass density [kg/m3]
x1 = 0.0164 | 822.1
x2 = 0.1687 | 1080
x2 = 0.2297 | 1070.3
x2 = 0.3334 | 1051.8
x2 = 0.4551 | 1026.5
x2 = 0.4571 | 1026.1
x2 = 0.6203 | 983.4
x2 = 0.7016 | 957.2
x2 = 0.7415 | 942.6
x2 = 0.7662 | 933.2
x2 = 0.796 | 921
x2 = 0.8046 | 917.2
x2 = 0.8218 | 909.8
x2 = 0.8733 | 885.4
x2 = 0.9024 | 870.5
x2 = 0.9534 | 841.3
x2 = 0.9558 | 839.9
x2 = 0.9584 | 838.3

CCCCCCCCn1cc[n+](C)c1.F[B-](F)(F)F + CCCCO
Settings | mass density [kg/m3]
x1 = 0.0043 | 809.4
x1 = 0.0048 | 809.9
x2 = 0 | 1103.8
x2 = 0.0664 | 1096.3
x2 = 0.169 | 1083.1
x2 = 0.2135 | 1076.8
x2 = 0.3043 | 1062.8
x2 = 0.4537 | 1035
x2 = 0.4744 | 1030.6
x2 = 0.5726 | 1007
x2 = 0.6356 | 989.1
x2 = 0.7956 | 930.3
x2 = 0.8283 | 915.1
x2 = 0.8517 | 903.4
x2 = 0.8955 | 879.1
x2 = 0.9268 | 859.8
x2 = 0.9571 | 839.2

CCCCO + CCCCCCCCn1cc[n+](C)c1.F[B-](F)(F)F
Settings | mass density [kg/m3]
x1 = 1 | 805.7

CCCCCO + CCCCCCCCn1cc[n+](C)c1.F[B-](F)(F)F
Settings | mass density [kg/m3]
x1 = 1 | 811
